# Test results reported in the supplement of paper PMC8728848.
# The list shows a part of the results.
# What was measured:
# Experiment in all cases: glycan array binding signal (z-score within array); higher = stronger binding
# Details in all cases: glycan notation: IUPAC condensed, linker removed
# [1] = target: GlcNAc(b1-3)Gal(b1-4)GlcNAc(b1-3)Gal(b1-4)GlcNAc(b1-3)Gal(b1-4)GlcNAc(b1-3)Gal(b1-4)GlcNAc(b1-2)[GlcNAc(b1-3)Gal(b1-4)GlcNAc(b1-3)Gal(b1-4)GlcNAc(b1-3)Gal(b1-4)GlcNAc(b1-3)Gal(b1-4)GlcNAc(b1-6)]Man(a1-6)[GlcNAc(b1-3)Gal(b1-4)GlcNAc(b1-3)Gal(b1-4)GlcNAc(b1-3)Gal(b1-4)GlcNAc(b1-3)Gal(b1-4)GlcNAc(b1-2)Man(a1-3)]Man(b1-4)GlcNAc(b1-4)[Fuc(a1-6)]GlcNAc
# Summary of the method: (§1)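 The Consortium for Functional Glycomics database supplied 3228 glycan arrays, of which those lacking an available protein sequence were dropped. The binding signal, a within-array Z-score, was averaged across arrays of the same protein sequence and across linkers. Negative scores can be read as non-binding.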
# [2] = target: GlcNAc(b1-3)Gal(b1-4)GlcNAc(b1-3)Gal(b1-4)GlcNAc(b1-3)GalNAc
# Summary of the method: as §1
# [3] = target: GlcNAc(b1-3)Gal(b1-4)GlcNAc(b1-3)GalNAc
# Summary of the method: as §1
# [4] = target: GlcNAc(b1-3)Gal(b1-4)GlcNAc(b1-3)[GlcNAc(b1-3)Gal(b1-4)GlcNAc(b1-3)]GalNAc
# Summary of the method: as §1
# [5] = target: GlcNAc(b1-3)Gal(b1-4)GlcNAc(b1-6)[Gal(b1-3)]GalNAc
# Summary of the method: as §1
# [6] = target: GlcNAc(b1-3)Gal(b1-4)GlcNAc(b1-6)[GlcNAc(b1-3)Gal(b1-3)]GalNAc
# Summary of the method: as §1
# [7] = target: GlcNAc(b1-3)Gal(b1-4)GlcNAc(b1-6)[GlcNAc(b1-3)]Gal(b1-4)GlcNAc
# Summary of the method: as §1
# GlcNAc(b1-3)GalNAc = target: GlcNAc(b1-3)GalNAc
# Summary of the method: as §1
# GlcNAc(b1-3)Man = target: GlcNAc(b1-3)Man
# Summary of the method: as §1
# [8] = target: GlcNAc(b1-3)[GlcNAc(b1-4)][GlcNAc(b1-6)]GlcNAc
# Summary of the method: as §1
# [9] = target: GlcNAc(b1-3)[GlcNAc(b1-6)]Gal(b1-4)GlcNAc
# Summary of the method: as §1
# [10] = target: GlcNAc(b1-3)[GlcNAc(b1-6)]GalNAc
# Summary of the method: as §1
# [11] = target: GlcNAc(b1-4)Gal(b1-4)GlcNAc
# Summary of the method: as §1
# GlcNAc(b1-4)GlcNAc = target: GlcNAc(b1-4)GlcNAc
# Summary of the method: as §1
# [12] = target: GlcNAc(b1-4)GlcNAc(b1-4)GlcNAc
# Summary of the method: as §1
# [13] = target: GlcNAc(b1-4)GlcNAc(b1-4)GlcNAc(b1-4)GlcNAc(b1-4)GlcNAc
# Summary of the method: as §1
# [14] = target: GlcNAc(b1-4)GlcNAc(b1-4)GlcNAc(b1-4)GlcNAc(b1-4)GlcNAc(b1-4)GlcNAc
# Summary of the method: as §1
# [15] = target: GlcNAc(b1-4)[GlcNAc(b1-6)]GalNAc
# Summary of the method: as §1
# [16] = target: GlcNAc(b1-6)Gal(b1-4)GlcNAc
# Summary of the method: as §1
# GlcNAc(b1-6)GalNAc = target: GlcNAc(b1-6)GalNAc
# Summary of the method: as §1
# [17] = target: GlcNAc6S(b1-3)Gal(b1-4)GlcNAc
# Summary of the method: as §1
# Kdn(a2-3)Gal(b1-3)GalNAc = target: Kdn(a2-3)Gal(b1-3)GalNAc
# Summary of the method: as §1
# Kdn(a2-3)Gal(b1-3)GlcNAc = target: Kdn(a2-3)Gal(b1-3)GlcNAc
# Summary of the method: as §1
# Kdn(a2-3)Gal(b1-4)Glc = target: Kdn(a2-3)Gal(b1-4)Glc
# Summary of the method: as §1
# Kdn(a2-3)Gal(b1-4)GlcNAc = target: Kdn(a2-3)Gal(b1-4)GlcNAc
# Summary of the method: as §1
# [18] = target: Kdn(a2-3)Gal(b1-4)[Fuc(a1-3)]GlcNAc
# Summary of the method: as §1
# Kdn(a2-6)Gal(b1-4)GlcNAc = target: Kdn(a2-6)Gal(b1-4)GlcNAc
# Summary of the method: as §1
# [19] = target: Man(a1-2)Man(a1-2)Man(a1-3)Man
# Summary of the method: as §1
# [20] = target: Man(a1-2)Man(a1-2)Man(a1-6)[Man(a1-3)]Man
# Summary of the method: as §1
# Man(a1-2)Man(a1-3)Man = target: Man(a1-2)Man(a1-3)Man
# Summary of the method: as §1
binder,measurement,setting,value
"a L Fucosidase (Streptosporangium roseum), D2B1P1_STRRD (protein) MRRKLLLVPAVGLLVIGSIFATQPVASADTPPVYEPTVESLNSHPVPQWFNDDKFGIFIHWGAYSVPAWGPRGSYAEWYGNYMNAGGSATNAHHKATYGQDFNYDAFLQQWKAEKFDPADWVKLFKDAGAKYFVLTSKHHEGMALWDSKSSGRDSVDLGPGRDLAKELFDAARKDEAKLKAGFYYSLYEWYNPAYTGRPATNPYTGAEIPYTGAPGGGDYVKDYMLPQMRELIDGYDPDIIWCDGQWEKPASYWNTAGVIADYYNKALNSGKEVAVANRCKIQSGNLDSPELDFQTPEYTVKPDIDPVKWESSRGIAHSYGYNQNEPEEDHLTSDQLVDSLVDIVSKNGNLLLDIGPKADGTIPEIQRQRLLDIGAWLKANGEAIYGTTYWNRAEEKGGPDDVRYTAKDATLYATALKWPGEQLTLGADLPVDHSTRITMLGSGARLSWSRDEQGRVVVNTPQEAGKHAYVFKIETPGVRSLLRTSSSLAKEIAPGRTISGELTVTNPGKRHTPATKLSLTVPQGWTATLGAPRVRPLGPGESVKVPISVSAPEGVAPAPYTLGLYQRTGRMGTTTALPLTVNRPNLSLGKPATQKSTGYDAPASRAVDGNTGGDWSAGSTTHTAEPEKQAWWQVDLGASARLDSVDVWNRLDCCADRLKDFWVMASDQPFTTDDLDQARTAPGVTAVHVGEQAGSPSKVKLPEGTRGRYVRIQLASPSNPLSLAEVQVRGSMARPNLSLGKPATQKSTGYDAPASRAVDGNTGGDWSAGSTTHTAEPEKQAWWQVDLGASARLDSVDVWNRLDCCADRLKDFWVMASDQPFTTDDLDQARTAPGVTAVHVGEQAGSPSKVKLPEGTRGRYVRIQLASPSNPLSLAEVQVRLEHHHHHHS",glycan array binding signal (z-score),[1],-0.477
same,glycan array binding signal (z-score),[2],-0.561
same,glycan array binding signal (z-score),[3],-0.447
same,glycan array binding signal (z-score),[4],-0.509
same,glycan array binding signal (z-score),[5],-0.564
same,glycan array binding signal (z-score),[6],0.314
same,glycan array binding signal (z-score),[7],-0.195
same,glycan array binding signal (z-score),GlcNAc(b1-3)GalNAc,-0.567
same,glycan array binding signal (z-score),GlcNAc(b1-3)Man,-0.086
same,glycan array binding signal (z-score),[8],-0.599
same,glycan array binding signal (z-score),[9],-0.608
same,glycan array binding signal (z-score),[10],-0.291
same,glycan array binding signal (z-score),[11],-0.774
same,glycan array binding signal (z-score),GlcNAc(b1-4)GlcNAc,-0.445
same,glycan array binding signal (z-score),[12],-0.537
same,glycan array binding signal (z-score),[13],-0.566
same,glycan array binding signal (z-score),[14],-0.148
same,glycan array binding signal (z-score),[15],-0.637
same,glycan array binding signal (z-score),[16],-0.461
same,glycan array binding signal (z-score),GlcNAc(b1-6)GalNAc,-0.474
same,glycan array binding signal (z-score),[17],-0.43
same,glycan array binding signal (z-score),Kdn(a2-3)Gal(b1-3)GalNAc,0.474
same,glycan array binding signal (z-score),Kdn(a2-3)Gal(b1-3)GlcNAc,-0.54
same,glycan array binding signal (z-score),Kdn(a2-3)Gal(b1-4)Glc,-0.16
same,glycan array binding signal (z-score),Kdn(a2-3)Gal(b1-4)GlcNAc,-0.555
same,glycan array binding signal (z-score),[18],-0.017
same,glycan array binding signal (z-score),Kdn(a2-6)Gal(b1-4)GlcNAc,-0.127
same,glycan array binding signal (z-score),[19],-0.582
same,glycan array binding signal (z-score),[20],-0.247
same,glycan array binding signal (z-score),Man(a1-2)Man(a1-3)Man,-0.556
